Results as given in PubChem BioAssay AID662 (National Center for Advancing Translational Sciences (NCATS), 2007).
About 1,800 (2.5%) of roughly 71,000 compounds were called active. Inconclusive means that the source gave no clear call. Such entries were picked first, then a sample of the others. The call rests on the fitted dose curve; in most records, active means well fitted activation curve with a large enough effect in the signal ratio, with a control signal flat (not every such curve was filed as active); inconclusive means small, poorly fitted or top-dose-only effect, or effect the other way, or a change in a side signal; inactive means flat fitted curve, though single readings scatter; the % refers to the signal ratio. A potency beside an inconclusive call is a rough fit, not a confirmed value.

assay: Cell signaling CRE-BLA (Fsk stim); conditions: CHO CRE-bla reporter (cAMP response element driving beta-lactamase), forskolin EC10, beta-lactamase ratio; activity change, negative = inhibition: at 38.2 µM (top of the series) unless noted; on activity change, negative = inhibition: % of control where 0% means no effect
How it was run: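 CHO CRE-bla cells, overnight plating in Opti-MEM with 0.5% dialyzed FBS; cpd titration + EC10 NKH 477, 3 h 37 °C; CCF4 2 h RT; ex 405/em 460 vs 530 ratio → %Activity, AC50.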
Potency means the concentration at half of the fitted maximal effect; tags describe the fitted curve by direction and shape.

Structure (SMILES) | activity change, negative = inhibition | Potency
Cc1cc(Cl)cc(Cl)c1OCC(=O)NCc1ccco1 | inconclusive: -20.7% [at 7.6 µM] | 
Cc1c(-c2ccccc2)oc2c(C(=O)OCCN3CCCCC3)cccc2c1=O |  | inactive
Cc1nc2ccc(F)cc2cc1C(=O)NC(C)C | inconclusive: -6.86% | 
CN(C)S(=O)(=O)N1CCC(Cc2ccccc2)CC1 | inconclusive: 7.69% [at 7.6 µM] | 
Cc1c(C(=O)NCc2ccccn2)sc2nc(-c3ccc(F)cc3)cn12 | inconclusive: 20.5% | 
N#CC(C(=O)OCc1ccccc1)c1nc2ccccc2nc1N1CCOCC1 (stereo not drawn) |  | inconclusive: 7.94 µM [rising, partial curve]
O=C(CN1CCCN(Cc2ccc(F)cc2Cl)C1=O)NCc1ccccc1 |  | inactive
O=C(Nc1ccc2c(c1)OCO2)C1CC(c2c(F)cccc2Cl)=NO1 (stereo not drawn) | inconclusive: 0.122% | 
Cc1ccc(S(=O)(=O)NC2=NCN(C3CCCCC3)CN2)cc1 |  | inconclusive: 0.0126 µM [rising, full curve, poor fit]
CC(C)(C)OC(=O)N1CCN(c2ccc(NC(=O)Cn3nnc(-c4ccccc4)n3)cc2)CC1 | inconclusive: -4.46% | 
Cc1ccc(NC(=O)CSc2nnc(-c3ccccc3Br)o2)cc1C |  | inactive
O=C(O)CCC(=O)CCC(=O)c1ccc(Cl)cc1 | inconclusive: 10.3% [at 7.6 µM] | 
CCOc1ccc(-c2nnn(CC(=O)Nc3cc(OC)ccc3OC)n2)cc1OCC |  | active: 3.16 µM
CCOc1ccc(CCNC(=O)CN(C)S(=O)(=O)c2cccc3nsnc23)cc1OCC | inconclusive: -11.8% | 
COc1ccc(NC(=O)CN2CCN(CC(=O)Nc3ccc(OC)c(OC)c3)CC2)cc1 |  | inconclusive: 3.98 µM [rising, single point]
Cn1c(=O)c2c(nc(SCCOc3ccc4ccc(=O)oc4c3)n2C)n(C)c1=O |  | inactive
O=C(c1ccco1)N1CCN(C(=O)C(Cc2ccccc2)NS(=O)(=O)c2cccs2)CC1 (stereo not drawn) |  | inactive
CCOC(=O)c1ccccc1NC(=O)COC(=O)C1=COCCO1 |  | inconclusive: 2.51 µM [rising, full curve]
CCOC(=O)CSc1ncnc2c1cnn2-c1ccccc1 |  | inactive
c1cncc(-c2nc(NCc3ccco3)c3ccccc3n2)c1 | inconclusive: -20.3% | 
NCCCC(=O)O | inconclusive: -6.25% | 
Clc1ccc(Cn2nnc(-c3ccc(CN4CCOCC4)cc3)n2)cc1 |  | inactive
COc1ccc2oc(C(=O)c3ccccc3)c(NC(=O)CN3CCN(C)CC3)c2c1 |  | inconclusive: 6.31 µM [rising, partial curve]
O=C(CN1C(=O)CCC1=O)Nc1ccc(Br)cc1 | inconclusive: -14.1% | 
O=C(O)CC[P+](c1ccccc1)(c1ccccc1)c1ccccc1 | inconclusive: -11.6% [at 7.6 µM] | 
CCc1nnc(SCC(=O)Nc2ccc(C(C)=O)cc2)nc1CC | inconclusive: -22.9% | 
Cn1c(/C(C#N)=C(\O)COc2ccc3ccccc3c2)nc2ccccc21 |  | inactive

Structure (SMILES) | activity change, negative = inhibition | Potency
COc1cc(S(=O)(=O)N2CCOCC2)ccc1NC(=O)COC(=O)c1ccccn1 |  | inconclusive: 5.01 µM [falling, single point]
c1ccc(Cc2nn3c(C4COc5ccccc5O4)nnc3s2)cc1 (stereo not drawn) | inconclusive: 7.18% | 
O=C(NCc1ccc2c(c1)OCO2)C1CCN(Cc2cnn(-c3ccccc3)c2-n2cccc2)CC1 |  | inconclusive: 20 µM [falling, single point]
COc1ccc(-c2nnc(COc3ccc4ccccc4c3)o2)cc1OC |  | inconclusive: 3.16 µM [rising, single point]
Cc1nnc2ccc(N3CCN(c4ccccn4)CC3)nn12 |  | inconclusive: 12.6 µM [rising, partial curve]
CN(C)c1ncc2nc(-c3ccc(F)cc3)c(=O)n(Cc3ccc(F)cc3)c2n1 |  | inconclusive: 15.8 µM [rising, partial curve]
c1ccc(-c2nnc3sc(-c4cc5ccccc5o4)nn23)cc1 |  | inconclusive: 10 µM [rising, partial curve]
CCn1nc(C(=O)OCC(=O)c2ccc3c(c2)OCCO3)c2ccccc2c1=O | inconclusive: 0.334% | 
Cc1[nH]n(-c2ccccc2)c(=O)c1-c1ccccc1 | inconclusive: 19.4% | 
CCOC(=O)N1CCC(n2c(SCC(=O)NCCC3=CCCCC3)nc3ccccc3c2=O)CC1 |  | inactive
CN(C)c1ncc2ncc(=O)n(CCC#N)c2n1 |  | inconclusive: 10 µM [rising, partial curve]
CC(C)C(=O)Nc1cccc(C(=O)NCc2ccc(S(N)(=O)=O)cc2)c1 | inconclusive: 14.1% | 
CCOC(=O)C1CCN(C2CC(=O)N(c3ccc(OCC)cc3)C2=O)CC1 (stereo not drawn) | inconclusive: 0.335% | 
CCc1nc2ccccc2n1CC(=O)N1CCN(S(=O)(=O)c2cccc(C(F)(F)F)c2)CC1 | inconclusive: -3.08% | 
Cc1cc2c(=O)n(CC(=O)NCC(=O)N3CCN(Cc4ccccc4)CC3)cnc2s1 | inconclusive: -12% | 
CN1CCC(N(C)C(=O)c2ccccc2Nc2ccc(SC(F)F)cc2)CC1 |  | inactive
COc1cccc(C2C(C(=O)c3ccc(C)o3)=C(O)C(=O)N2CCCN(C)C)c1 (stereo not drawn) |  | inactive
CCc1cc2cc3c(cc2nc1SCC(=O)N1CCN(C(=O)c2ccco2)CC1)OCO3 |  | inactive
Cc1cc(C)n2cc(CSc3nnc(N)s3)nc2n1 |  | inactive
O=C(NCc1cccs1)c1cnc2sccn2c1=O | inconclusive: 4.99% | 
CC(=O)NC(CCS(C)(=O)=O)C(=O)Nc1c(F)cccc1F (stereo not drawn) | inconclusive: 8.23% | 
Cc1ccc(S(=O)(=O)N2CCCCC2C(=O)NCc2ccco2)cc1 (stereo not drawn) | inconclusive: -13.1% | 
COC(=O)CSc1nnnn1-c1ccccc1 |  | inconclusive: 5.01 µM [falling, single point]
C(=C\c1ccccc1)/CN1CCN(c2ncnc3c2oc2ccccc23)CC1 | inconclusive: -14% | 
CC(C)(C)n1ncc2c(=O)n(CC(=O)N3CCCc4ccccc43)cnc21 |  | inconclusive: 20 µM [rising, single point]
COc1ccc(-c2nnn(CC(=O)N(Cc3cccs3)C(C)C(=O)NC3CCCC3)n2)cc1OC (stereo not drawn) |  | inconclusive: 10 µM [rising, partial curve]
